# Measured values published in PubChem BioAssay AID1347073 (National Center for Advancing Translational Sciences (NCATS), 2019).
# About 200 (0.44%) of roughly 45,000 compounds were called active. Another 7% or so got no clear call; they are omitted. Calls come from the whole dose curve; as a rule, active = well fitted activation curve with a large enough effect; inconclusive = small, poorly fitted or top-dose-only effect; inactive = no such curve, though single readings can be large or run the other way. This is one part of the list.
# Assay: qHTS of TDP-43 Inhibitors: NCGC Sytravon Library Screen; note: 0% is about no effect; nearly all actives have a fitted effect of over 55% in size
# Details: yeast TDP-43 toxicity rescue, BacTiter-Glo growth, 24 h; series mostly up to 46.1 µM; growth rescue (activation): at the top concentration
# Summary of the method: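 TDP-43-expressing yeast, pregrown in raffinose, seeded at OD600 0.02 in galactose medium with compound for 24 hr at 30 deg C. Growth read by BacTiter-Glo luminescence, so rescue of toxicity appears as activation.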
row,Structure (SMILES),growth rescue (activation)
1,COc1cc(-c2nc3ncccn3c2Nc2ccc(C)cc2C)ccc1O,inactive: 10.5%
2,Cc1cc(=O)oc2cc(NC(=O)c3cccc(F)c3)ccc12,inactive: 0.997%
3,COc1ccccc1C(=O)N1CCN(Cc2nc(CC3CC3)no2)CC1,inactive: -1.05%
4,NC(Cc1ccc(C(F)(F)F)cc1)c1csc(Nc2ccccn2)n1 (stereo unspecified),inactive: 17.2%
5,CC1(CC(=O)N/N=C/c2ccc(-c3ccc(Cl)cc3)o2)OCCO1,inactive: 13.6%
6,CCCNC(=O)COC(=O)/C=C/c1cccc(F)c1,inactive: 11.3%
7,COCCN(C(=S)Nc1ccc(OC)cc1)C1CCN(C(C)=O)CC1,inactive: 28.6%
8,Cc1noc(C)c1-c1ccc(C(=O)NCCC(F)(F)F)c2occc12,inactive: 17.9%
9,CC(Sc1nncn1C)C(=O)NCCC1=CCCCC1 (stereo unspecified),inactive: 0.269%
10,Cc1nc(SCC(=O)Nc2ccccn2)n[nH]1,inactive: 16.5%
11,O=S(=O)(c1cccc(-c2nnc3n2CCCCC3)c1)N1CCOCC1,inactive: 9.19%
12,COc1cc(CNC(=O)c2cc(-c3ccc(F)cc3OC)n[nH]2)cc(OC)c1,inactive: 17.5%
13,O=C(Cc1n[nH]c(=O)c2ccccc12)N/N=C/c1cc2c(cc1Cl)OCO2,inactive: 2.79%
14,O=C(Nc1ccc(NC(=O)N2CCN(c3ccccc3O)CC2)cc1)N1CCN(c2ccccc2O)CC1,inactive: -11.9%
15,O=C(NC(c1ccccc1)c1ccc2ccccc2n1)C1CCN(Cc2ccc(Cl)c(Cl)c2)CC1 (stereo unspecified),inactive: -0.162%
16,O=C(CN1CCCC1)Nc1ccc([N+](=O)[O-])cc1,inactive: 9.94%
17,Cc1cc(NCCCO)n2c(nc3ccccc32)c1C#N,inactive: 24.7%
18,CCc1ccc(NC(=S)N2CCC(NC(=O)c3ccccc3)CC2)cc1,inactive: -1.59%
19,Cc1ccc2oc(C(=O)NCc3ccccc3)cc(=O)c2c1,inactive: 13.3%
20,Cn1c(=O)c2ccccc2n(CC(=O)NC2CCCC2)c1=O,inactive: -20%
21,CCN(CC)CCNS(=O)(=O)c1ccc(C(=O)NN)cc1,inactive: 22%
22,Cc1cc(Cl)ccc1NC(=S)N1CCN(C(=O)C2CCCO2)CC1 (stereo unspecified),inactive: 0.503%
23,COc1cc(NC(=O)C2CCC(=O)N2S(=O)(=O)c2ccc(C)cc2)cc(OC)c1 (stereo unspecified),inactive: 0.944%
24,CCc1nc2ccc(C(=O)NCc3ccccc3OC)cn2c1N(C)Cc1ccc(N(C)C)cc1,inactive: -4.62%

row,Structure (SMILES),growth rescue (activation)
1,COc1cc(NC(=O)COC(=O)c2ccc3ccccc3n2)cc(OC)c1,inactive: 14.1%
2,CCOC(=O)NC(=O)CSc1nnc(SCCC(=O)O)s1,inactive: -4.75%
3,Cc1ccc(/C(O)=C2/C(=O)C(=O)N(Cc3cccnc3)C2c2ccccn2)cc1 (stereo unspecified),inactive: 27.9%
4,O=c1c2oc3ccccc3c2ncn1Cc1ccc(F)cc1,inactive: 19.1%
5,COc1cc(CNCCc2ccccc2)cc(Br)c1OCC(=O)Nc1ccccc1C,inactive: 0.335%
6,COc1cccc(NCc2cc(=O)oc3cc(C)c(O)cc23)c1,inactive: -7.61%
7,COc1ccc(-c2nc(NC(=O)c3c(C)noc3C)sc2C)cc1,inactive: 11.3%
8,COc1cc(C2NC(=O)NC(C)=C2C(C)=O)ccc1O (stereo unspecified),inactive: -4.41%
9,Cc1cc2nc3c(c(=O)n2[nH]1)CCCC3,inactive: 8.75%
10,O=C(N/N=C/c1cc(Br)cc(Br)c1O)c1ccncc1,inactive: 24.3%
11,COc1cccc(CN2CCN(Cc3ccon3)CC2CCO)c1 (stereo unspecified),inactive: -14.6%
12,CN(C(=O)c1ccco1)c1nnc(-c2ccc(F)cc2)s1,inactive: -8.33%
13,COc1cc(NC(=O)c2cccc3c(-c4cccnc4)coc23)cc(OC)c1OC,inactive: 6.44%
14,CCOC(=O)c1cc(NC(=O)N(C(C)C)C2CCCCC2)c(C)nc1C,inactive: -19.8%
15,COC(=O)c1sc(NC(=O)CSc2nc3cccnc3n2C)nc1C,inactive: 4.48%
16,CCOP(=O)(OCC)c1cccc(P(=O)(c2ccccc2)c2ccccc2)c1O,inactive: 9.9%
17,CCOc1ccc(N2CC(C(=O)NCCN3C(=O)S/C(=C\c4cccnc4)C3=O)CC2=O)cc1 (stereo unspecified),inactive: 5.43%
18,CC(Cc1cccs1)NC(=O)Nc1ccc(F)cc1 (stereo unspecified),inactive: 4.91%
19,O=C(O)c1ccc(/C=N/NC(=O)c2ccc(F)cc2)cc1,inactive: -1.27%
20,CN(C)C(CNc1ccc(S(C)(=O)=O)cc1[N+](=O)[O-])c1ccccc1 (stereo unspecified),inactive: -16%
21,COc1ccc(-c2nn(CCC#N)cc2C(=O)Nc2cccc(C(=O)O)c2)cc1[N+](=O)[O-],inactive: -3.54%
22,O=S(=O)(NCC1NCCc2ccccc21)c1ccccc1 (stereo unspecified),inactive: -0.268%
23,CC(C)Oc1cccc(C(=O)C2CCCN(C(=O)c3ccoc3)C2)c1 (stereo unspecified),inactive: 21.3%
24,Cc1cc(C)cc(NC(N)=S)c1,inactive: 19.4%

row,Structure (SMILES),growth rescue (activation)
1,Cc1ccc(/C=N/NC(=O)CSc2nc3ccccc3[nH]2)o1,inactive: -4.42%
2,CCCCn1c(SCC(=O)Nc2cc(C)on2)nnc1-c1ccncc1,inactive: -1.45%
3,O=C(NCc1ccco1)C1CCN(C(=O)c2ccc(Cl)cc2Cl)CC1,inactive: 10.3%
4,O=C(/C=C/c1cccc([N+](=O)[O-])c1)NCCc1ccc(F)cc1,inactive: -21.6%
5,Cc1ccccc1N1C(=O)CC2(CCCC2)CC1=O,inactive: -4.31%
6,O=C(NC1CC1)C1CCN(C(=O)c2ccc(Cl)cc2Cl)CC1,inactive: 8.21%
7,O=C(CSc1ncn[nH]1)Nc1ccc([N+](=O)[O-])cc1Br,inactive: -23.7%
8,CCOc1ccc(N(CC(=O)N2CCCC2)S(=O)(=O)c2ccc(Cl)cc2)cc1,inactive: -15.7%
9,CCOc1ccc(S(=O)(=O)N2CCC(C(=O)NC3CC3)CC2)cc1Cl,inactive: -4.84%
10,O=C1/C(=C\c2ccsc2)NC(=S)N1c1ccccc1,inactive: 1.9%
11,CC(NS(=O)(=O)c1ccc(OCC(=O)NCc2ccccn2)cc1)c1ccccc1 (stereo unspecified),inactive: -1.65%
12,COc1ccccc1NS(=O)(=O)c1ccc(/C=C/C(=O)O)cc1,inactive: 2.01%
13,c1ccc(Cn2c(-c3ccccc3)c[n+]3c2SCCC3)cc1,inactive: 1.07%
14,O=C(CCn1c(=O)oc2ccccc21)Nc1ccc(C(=O)O)cc1,inactive: -12.2%
15,N#CCN(CC#N)C(=O)C1c2ccccc2Oc2ccccc21,inactive: 5.92%
16,Cc1ccc(C(=O)O)cc1NC(=O)CSc1ncnc2sc3c(c12)CCC3,inactive: 10.4%
17,CCCS(=O)(=O)N1CCCC(C(=O)NCCc2ccccc2)C1 (stereo unspecified),inactive: 10.2%
18,O=C(CN(c1cccc(C(F)(F)F)c1)S(=O)(=O)c1ccc(Cl)c([N+](=O)[O-])c1)NCc1ccc(F)cc1,inactive: 14.7%
19,C=CCNc1nc(=S)[nH]c2cc(OC)c(OC)cc12,inactive: -7.13%
20,COc1ccccc1NC(=O)c1ccc(NC(=O)CN2CCCCC2)cc1,inactive: -12%
21,CN(C)CCNC(=O)c1cccc(-c2cccc3nncn23)c1,inactive: -18.5%
22,Cc1cc(C)nc(NS(=O)(=O)c2ccc(NC(=O)CSc3nc4ccccc4[nH]3)cc2)n1,inactive: 9.56%
23,COc1ccc(N2CCN(C3CCCN(C(=O)c4cccc(C)n4)C3)CC2)cc1 (stereo unspecified),inactive: -3.17%
